Laboratory results from PubChem BioAssay (NCATS).
Inconclusive means that the source gave no clear call. Such entries were picked first, then a sample of the others. A potency beside an inconclusive call is a rough fit, not a confirmed value. The source made the active and inactive calls. Calls follow the shape of the dose curve; as a rule, active = well fitted cell-killing curve with a large enough effect; inconclusive = small, poorly fitted or top-dose-only effect, or effect the other way; inactive = flat fitted curve, though single readings scatter.

What was measured:
Assay in all cases: Primary qHTS to identify gynecologic anti-cancer compounds using libraries of approved drugs and bioactive compounds (AID 1345084); also: nearly all actives have a fitted effect of over 55% in size
[1] = tested on: C33A; conditions: Gynecologic cancer cell panel viability, ATPlite luminescence, 48 h; series mostly up to 57.5 µM
In short: (§1)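 Five-point cytotoxicity, 48 h drug exposure at 37 C, 5% CO2, on cells seeded 16 h beforehand. ATP content read by ATPlite luminescence.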

[2] = tested on: CASKI; conditions: Gynecologic cancer cell panel viability, ATPlite luminescence, 48 h; series mostly up to 57.5 µM
In short: as §1

[3] = tested on: HeLa; conditions: Gynecologic cancer cell panel viability, ATPlite luminescence, 48 h; series mostly up to 57.5 µM
In short: as §1

[4] = tested on: Hek293T; conditions: Gynecologic cancer cell panel viability, ATPlite luminescence, 48 h, control line for the selectivity index; series mostly up to 57.5 µM
In short: as §1

[5] = tested on: OV90; conditions: Gynecologic cancer cell panel viability, ATPlite luminescence, 48 h; series mostly up to 57.5 µM
In short: as §1

[6] = tested on: CAOV3; conditions: Gynecologic cancer cell panel viability, ATPlite luminescence, 48 h; series mostly up to 57.5 µM
In short: as §1

[7] = tested on: Es-2; conditions: Gynecologic cancer cell panel viability, ATPlite luminescence, 48 h; series mostly up to 57.5 µM
In short: as §1

[8] = tested on: JEG-3; conditions: Gynecologic cancer cell panel viability, ATPlite luminescence, 48 h; series mostly up to 57.5 µM
In short: as §1
Potency is read from the fitted curve at half-maximal effect; tags tell the direction and shape of the fitted curve.

SMILES	Potency [1]	Potency [2]	Potency [3]	Potency [4]	Potency [5]	Potency [6]	Potency [7]	Potency [8]
CC1=CC2OC3CC(O)[C@](C)([C@@]2(C)C(O)C1=O)[C@]31CO1 (stereo not given in full)	inconclusive: 8.91 µM [cytotoxic, partial curve]	inconclusive: 39.8 µM [cytotoxic, single point]	inconclusive: 10 µM [cytotoxic, partial curve]	active: 3.16 µM	inconclusive: 12.6 µM [cytotoxic, partial curve]	–	–	–
CO/C1=C\C(C)=C\[C@@H](C)[C@@H](O)[C@@H](C)C/C(C)=C/C=C/[C@H](OC)[C@@H]([C@@H](C)[C@@H](O)[C@H](C)[C@@]2(O)C[C@@H](O)[C@H](C)[C@@H](C(C)C)O2)OC1=O	active: 0.141 µM	–	–	active: 0.1 µM	–	active: 0.126 µM	active: 0.0794 µM	–
C[C@@H]1O[C@@H](O[C@H]2CC[C@@]3(C)C(CC[C@@H]4C3CC[C@]3(C)[C@@H](C5=CC(=O)OC5)CC[C@]43O)C2)[C@H](O[C@@H]2O[C@H](CO)[C@@H](O)[C@H](O)[C@H]2O)[C@H](O)[C@H]1O (stereo not given in full)	active: 0.562 µM	inconclusive: 3.55 µM [cytotoxic, partial curve, poor fit]	–	active: 0.891 µM	inconclusive: 3.55 µM [cytotoxic, partial curve, poor fit]	active: 1 µM	–	active: 2.82 µM
CC[C@H](C)[C@H](NC(=O)[C@H]1CCCCN1C)C(=O)N(COC(=O)CC(C)C)[C@H](C[C@@H](OC(C)=O)c1nc(C(=O)N[C@@H](Cc2ccc(O)cc2)C[C@H](C)C(=O)O)cs1)C(C)C	inconclusive: 0.0074 µM [cytotoxic, full curve]	inconclusive: 0.0009 µM	inconclusive: 0.001 µM	inconclusive: 0.165 µM	inconclusive: 0.0047 µM [cytotoxic, full curve, poor fit]	–	active: 0.0083 µM	inconclusive: 0.0026 µM [cytotoxic, full curve, poor fit]
C[C@]12CC[C@@H](O[C@@H]3O[C@H](CO)[C@@H](O)[C@H](O)[C@H]3O)C[C@@]1(O)CCC1C2CC[C@]2(C)[C@@H](C3=CC(=O)OC3)CC[C@]12O (stereo not given in full)	active: 0.199 µM	inconclusive: 1.12 µM [cytotoxic, full curve, poor fit]	active: 0.398 µM	active: 0.199 µM	active: 1.12 µM	active: 0.501 µM	–	inconclusive: 0.891 µM [cytotoxic, full curve, poor fit]
CC[C@H]1/C=C\C=C/C[C@@H](C)[C@H](O)[C@@](C)(O)C(=O)[C@@H](C)[C@H](O)[C@@H](C)C(=O)[C@@H](C)[C@H](O)[C@@H](C)/C=C\C(=O)O[C@@H]2[C@H](C)[C@H](CC1)O[C@]1(CC[C@H](C)[C@H](C[C@@H](C)O)O1)[C@H]2C	inconclusive: 10 µM	–	inconclusive: 12.6 µM	inconclusive: 6.31 µM	–	inconclusive: 1.78 µM [cytotoxic, partial curve, poor fit]	inconclusive: 39.8 µM [cytotoxic, single point]	inconclusive: 0.447 µM [rising, full curve, poor fit]
C=C(CO)[C@@]12O[C@@H]1[C@@]1(C)C(=CC2=O)CC[C@@H](O)[C@@H]1C	inconclusive: 10 µM [cytotoxic, partial curve, poor fit]	–	–	inconclusive: 14.1 µM [cytotoxic, partial curve]	–	inconclusive: 31.6 µM [cytotoxic, single point]	inconclusive: 35.5 µM [cytotoxic, single point]	–
C[C@@H]1O[C@@H](O[C@H]2CC[C@@]3(C)C(CC[C@@H]4C3CC[C@]3(C)[C@@H](C5=CC(=O)OC5)CC[C@]43O)C2)[C@H](O)[C@H](O)[C@H]1O (stereo not given in full)	active: 1 µM	active: 4.47 µM	–	active: 1 µM	active: 5.62 µM	active: 3.98 µM	–	inconclusive: 4.47 µM [cytotoxic, full curve, poor fit]
Cc1ccccc1CN1CCC(N2CCC(n3c(=O)[nH]c4ccccc43)CC2)CC1	inconclusive: 10 µM [cytotoxic, partial curve, poor fit]	–	–	inconclusive: 11.2 µM [cytotoxic, partial curve]	inconclusive: 5.01 µM [cytotoxic, full curve]	inconclusive: 39.8 µM [cytotoxic, single point]	inactive	–
